Each structure is given as a SMILES string. In all, about 310,000 compounds went through this assay and about 14,000 (4.5%) showed an effect of 50% or more. Effects have a minus sign here. The list shows a part of the results.
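Further: peak tail current of the secondary pulse compared with the same well before compound.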

The target in the assay is human ether-à-go-go-related gene (hERG) potassium channel (human, UniProt Q12809). The assay is described as follows: primary screen, population patch clamp on CHO cells stably expressing hERG.
human ether-à-go-go-related gene (hERG) potassium channel, sequence (Q12809 whole entry, looked up): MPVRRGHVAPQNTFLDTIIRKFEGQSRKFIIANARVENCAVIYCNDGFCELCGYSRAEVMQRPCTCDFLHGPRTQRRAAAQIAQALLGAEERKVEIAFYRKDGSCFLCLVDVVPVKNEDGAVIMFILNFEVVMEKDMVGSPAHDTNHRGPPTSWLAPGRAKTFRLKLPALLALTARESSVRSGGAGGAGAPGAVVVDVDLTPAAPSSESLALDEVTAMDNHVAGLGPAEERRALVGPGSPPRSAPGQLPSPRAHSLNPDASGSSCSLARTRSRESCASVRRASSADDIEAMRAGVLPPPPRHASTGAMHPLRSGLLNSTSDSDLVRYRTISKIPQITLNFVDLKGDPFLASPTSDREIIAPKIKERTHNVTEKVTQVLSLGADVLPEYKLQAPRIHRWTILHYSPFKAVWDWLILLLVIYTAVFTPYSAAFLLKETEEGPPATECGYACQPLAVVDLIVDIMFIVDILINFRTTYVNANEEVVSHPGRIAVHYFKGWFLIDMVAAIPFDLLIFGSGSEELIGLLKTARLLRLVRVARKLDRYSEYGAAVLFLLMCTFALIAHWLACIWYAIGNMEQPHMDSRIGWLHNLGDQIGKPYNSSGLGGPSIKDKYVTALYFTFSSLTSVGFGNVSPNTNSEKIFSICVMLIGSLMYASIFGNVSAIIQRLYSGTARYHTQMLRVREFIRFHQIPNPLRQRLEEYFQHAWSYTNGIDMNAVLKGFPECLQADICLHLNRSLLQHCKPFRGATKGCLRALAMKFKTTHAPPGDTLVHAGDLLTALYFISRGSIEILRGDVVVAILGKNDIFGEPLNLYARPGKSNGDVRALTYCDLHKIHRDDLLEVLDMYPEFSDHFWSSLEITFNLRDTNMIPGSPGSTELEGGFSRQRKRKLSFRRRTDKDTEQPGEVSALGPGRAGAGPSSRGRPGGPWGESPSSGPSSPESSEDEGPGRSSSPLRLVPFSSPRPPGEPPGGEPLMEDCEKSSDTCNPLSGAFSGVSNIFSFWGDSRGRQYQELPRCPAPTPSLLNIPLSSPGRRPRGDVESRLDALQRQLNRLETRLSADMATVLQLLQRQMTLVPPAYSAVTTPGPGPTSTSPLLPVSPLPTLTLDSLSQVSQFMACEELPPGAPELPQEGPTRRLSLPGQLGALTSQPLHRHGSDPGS
Consider `CC(C)CC(=O)Nc1nnc(SCC(=O)Nc2ccc(F)cc2)s1`, for which the “hERG current change (%, negative = inhibition) at 10uM” value is 16.8%.
The same measure for `Cc1cccc(NC(=O)c2nc[nH]c2C(=O)NC2CCN(C(=O)OC(C)(C)C)CC2)c1`: 1.23%; for `COc1ccc(NC(=O)CSc2ccc3c4c(cccc24)C(=O)c2ccccc2-3)cc1`: -4.94%; for `CN(C)CC(C)(C)CNS(=O)(=O)c1ccc(Cl)cc1.Cl`: -6.44%.
On to `Cc1c(NC(=S)NC(=O)c2cc3ccccc3o2)c(=O)n(-c2ccccc2)n1C`, for which the “hERG current change (%, negative = inhibition) at 10uM” value is -2.85%.
On to `Cc1ccc(C(C)C)cc1OCC(=O)Nc1ccccc1N1CCCC1`, for which the “hERG current change (%, negative = inhibition) at 10uM” value is reported as 10.3%.
In the case of `Cc1oc(-c2ccc(Cl)cc2)nc1CN1CCCC(C(=O)NCc2ccccn2)C1` (stereo not drawn) it was -67.8%; in that of `CCOC(=O)c1c(NC(=O)CN2CCOCC2)sc2c1CCCC2=O`, -6.33%.
In the case of `Cc1ccc(C(=O)Nc2ccc(C(=O)N3CCCCC3)cc2)cc1` it was -16.3%; in that of `Cc1cccc(NC(=O)CN(C)S(=O)(=O)c2ccc(Br)cc2)n1`, -21.8%.
The same measure for `Cn1c(=O)c2c(nc(N/N=C/c3ccncc3)n2Cc2ccccc2)n(C)c1=O`: -28.8%.
Consider `COC(=O)c1[nH]c2ccc(Cl)cc2c1NC(=O)c1ccccc1[N+](=O)[O-]`, for which the “hERG current change (%, negative = inhibition) at 10uM” value is listed as -4.92%.
In the case of `Cc1nc2sc(C(=O)c3ccccc3)c(N)c2c(C)c1C` it was 19.7%; in that of `COc1ccc(CNC(=O)CCNS(=O)(=O)c2ccc(Br)s2)cc1`, 9.5%; in that of `N#Cc1c(-c2ccc(F)cc2)ccnc1N1CCOCC1`, 16%.
As to `CCc1ccc(Nc2nnc(SCC(=O)NCCN3C(=O)CSC3=O)s2)cc1`, the “hERG current change (%, negative = inhibition) at 10uM” value is -17.3%.
Regarding `c1ccc(NCc2nnc3n2CCCCC3)cc1`, the “hERG current change (%, negative = inhibition) at 10uM” value was -2.98%.
In the case of `CCC(=O)N1CC2(CC(c3cccc(NC(=O)CC(c4ccccc4)c4ccccc4)c3)=NO2)C[C@H]1C(N)=O` (stereo partly drawn) it was 11.3%; in that of `Cc1nn(CCOc2ccccc2)c(=O)n1-c1ccccc1`, 1.55%.
The same measure for `CC1(C)CC(=O)C2=C(C1)N(N1CCOCC1)C(N)=C(C#N)C2c1cccs1` (stereo not drawn): -31.8%; for `CCN(CC)C(=O)C1CCCN(c2ccc([N+](=O)[O-])cc2)C1` (stereo not drawn): -52.2%; for `CCCn1cnc2c(oc3ccccc32)c1=O`: 4.8%.
Turning to `COC1CCCN(Cc2c(C(=O)N3CCN(C4CCCCC4)CC3)nc3ccccn23)C1` (stereo not drawn), the “hERG current change (%, negative = inhibition) at 10uM” value is listed as 8.21%.
The same measure for `COc1ccc(N2CCN(C(=O)CSc3nnc(-c4ccco4)n3C)CC2)cc1`: -10.4%; for `O=C(Nc1ccc(OC(F)(F)F)cc1)C1=NCCN1`: -17.2%; for `COc1cccc(C(c2ccccc2)N2C3CCC2CN(S(=O)(=O)c2ccc(F)cc2)CC3)c1` (stereo not drawn): -3.21%.
The same measure for `CCc1nnc(NC(=O)C2CCCCC2)s1`: -1.6%.
On to `COc1ccc(Oc2ccc(-c3ccn[nH]3)cc2)cc1`, for which the “hERG current change (%, negative = inhibition) at 10uM” value is reported as -0.611%.
The same measure for `COCCn1c(SCC(=O)c2ccc3c(c2)OCCO3)nnc1-c1ccoc1C`: -5.38%.
In the case of `C/C(CCc1ccco1)=N/NC(=O)CCC(=O)Nc1ccc(Br)cc1` it was 10.2%; in that of `Cc1cc(C)c(NC(=O)CNC(=O)CNC(=O)C2CCCCC2)c(C)c1`, -4.8%; in that of `Cc1ccc(C(=S)N2CCN(Cc3ccccc3)CC2)cc1`, -42.9%.
In the case of `COC(=O)C(NC(=O)c1ccccc1)=C(C)C` it was 0.816%.
For the compound `COc1ccccc1C(=O)Nc1ccc(-c2nnc(SCC(=O)O)n2C)cc1`, the “hERG current change (%, negative = inhibition) at 10uM” value is listed as 19.2%.
The same measure for `O=C(COC(=O)c1cc(-c2cccs2)nc2ccccc12)NCc1ccco1`: -20.5%.
In the case of `CC(C)[C@H](NC(=O)NC1CCN(Cc2ccccc2)CC1)C(=O)O` it was -2.64%; in that of `CCC(Sc1nc2cc3c(cc2c(=O)n1Cc1ccco1)OCO3)C(=O)Nc1ccccc1OC` (stereo not drawn), 2.52%; in that of `COCCNC(=O)c1ccc(N2CC3CC(C2)c2cccc(=O)n2C3)c(NC(=O)c2ccc(F)cc2)c1` (stereo not drawn), 12.3%.
Take `COc1ccc(/C=N/NC(=O)c2ccn[nH]2)cc1Cn1cc([N+](=O)[O-])cn1`: the “hERG current change (%, negative = inhibition) at 10uM” value is on record as 9.25%.
With `NNC(=O)CCN1CCN(C(c2ccccc2)c2ccccc2)CC1`, the “hERG current change (%, negative = inhibition) at 10uM” value was -7.7%.
The same measure for `COc1cccc(N2CCN(C(=O)C3CCCN(S(=O)(=O)c4cnc[nH]4)C3)CC2)c1` (stereo not drawn): 17.4%.
In the case of `CC(=O)Oc1c(S(=O)(=O)c2ccccc2)c(C)nn1C(C)(C)C` it was -8.37%; in that of `COc1ccc(-c2nc(Cn3c(SCc4cccc(F)c4)nc4ccncc43)c(C)o2)cc1OC`, -62.4%; in that of `Cc1nn(C)cc1-c1cc(C(=O)O)c2ccccc2n1`, 12.4%.
Take `CCc1cccc(CC)c1NC(=S)NCCc1c(C)[nH]c2ccc(C)cc12`: the “hERG current change (%, negative = inhibition) at 10uM” value was -27%.
Take `O=C(CCCO)NNc1c2ccccc2nc2ccccc12`: the “hERG current change (%, negative = inhibition) at 10uM” value is -27%.
`Cc1nc2ccccc2n1Cc1ccc(Cl)cc1`: the “hERG current change (%, negative = inhibition) at 10uM” value was -2.56%.
The same measure for `COc1cc(NC(=O)c2cc3ccccc3o2)c(OC)cc1Br`: 5.55%; for `CC(=O)c1sc(NC(=O)c2ccc(Br)o2)nc1C`: 13.9%.
As for `Cn1c(=O)c([N+](=O)[O-])c(NC2CCS(=O)(=O)C2)c2ccccc21` (stereo not drawn), the “hERG current change (%, negative = inhibition) at 10uM” value is listed as 6.46%.
In the case of `Cc1cccc(N2C(=O)c3ccc(C(=O)Nc4cccc(C(=O)O)c4)cc3C2=O)c1` it was 5.29%; in that of `CC(=O)Nc1ccc2nc(SCC(=O)O)sc2c1`, 9.25%.
In the case of `O=C(O)c1ccc(NCc2ccc(Br)cc2)cc1` it was 6.53%; in that of `CC(=O)Nc1ccc(S(=O)(=O)Oc2cccc(N3C(=O)C4CC=CCC4C3=O)c2)cc1` (stereo not drawn), -13.1%.
As to `O=[N+]([O-])c1ccc(Oc2ccc(S(=O)(=O)N3CCOCC3)cn2)cc1`, the “hERG current change (%, negative = inhibition) at 10uM” value is reported as -32.6%.
In the case of `Cc1occc1C(=O)OCC(=O)Nc1ccc(F)cc1` it was -7.55%; in that of `CCCc1cc(=O)oc2cc(C)cc(OC(C)C(=O)NCC(O)c3ccccc3)c12` (stereo not drawn), 7.42%; in that of `CCCCCCCC(=O)NNC(=O)c1c(O)c2ccccc2n(CCC)c1=O`, 13.2%.
Turning to `CN(C)S(=O)(=O)c1ccc(C(=O)OCC2CC2(Cl)Cl)cc1` (stereo not drawn), the “hERG current change (%, negative = inhibition) at 10uM” value stood at 10.7%.
Regarding `Cc1cc(-c2ccc(C)c(S(=O)(=O)N3CCN(c4ccc([N+](=O)[O-])cc4)CC3)c2)on1`, the “hERG current change (%, negative = inhibition) at 10uM” value was -67.8%.
`COc1ccc(OC)c(S(=O)(=O)N(C)CC(=O)N2CCN(c3ccccc3F)CC2)c1`: the “hERG current change (%, negative = inhibition) at 10uM” value was -6.63%.
For the compound `O=C(CNC(=S)N(CCCN1CCOCC1)Cc1cccs1)N1CCCC1`, the “hERG current change (%, negative = inhibition) at 10uM” value came to 3.09%.
The same measure for `CC(C)CCOP(=O)(c1ccc(N(C)C)cc1)C(Nc1ccccc1)c1ccc(N(C)C)cc1` (stereo not drawn): 0.941%; for `O=C(CN1CCN(c2ccccn2)CC1)Nc1cccc(Br)c1`: -38.2%.
As to `Clc1cc(Cl)c(OCCCCn2cncn2)c(Cl)c1`, the “hERG current change (%, negative = inhibition) at 10uM” value is on record as -39.6%.
`COc1ccc(-n2nnc3c(=O)n(C/C=C/c4ccccc4)cnc32)cc1`: the “hERG current change (%, negative = inhibition) at 10uM” value is -23%.
Turning to `N=c1c2c(-c3ccccc3)c(-c3ccccc3)n(Cc3ccco3)c2ncn1CCCn1ccnc1`, the “hERG current change (%, negative = inhibition) at 10uM” value was -74.3%.
In the case of `COc1cccc(C(=O)NCC(c2ccco2)N2CCOCC2)c1` (stereo not drawn) it was 5.65%; in that of `CN(C)/C=N/c1nc2ccc3c(c2s1)CCCC3`, 5.76%; in that of `COc1ccc(OCC(=O)N2CCC(Cc3ccccc3)CC2)cc1`, -36%.
In the case of `Cl.c1ccc(-c2nc(NCc3ccco3)c3ccccc3n2)cc1` it was -33.4%; in that of `CCCCc1ccc(NC(=O)CSc2nc(=O)n(CCN3CCOCC3)c3c2CCC3)cc1`, -66.5%.
For the compound `COc1ccc(-c2c(-c3ccsc3)oc3ccc(N4CCOCC4)cc23)cn1`, the “hERG current change (%, negative = inhibition) at 10uM” value is on record as 7.49%.
Turning to `CCOc1ccc2c(c1)/C(=N/N1C(=O)c3ccccc3C1=O)C(=O)N2`, the “hERG current change (%, negative = inhibition) at 10uM” value came out at 23.6%.
For the compound `O=C1C(=O)N(Cc2ccccc2)C(=O)N1CCN1C(=O)c2ccccc2C1=O`, the “hERG current change (%, negative = inhibition) at 10uM” value is -11.6%.
For the compound `O=C(NC1CCSc2ccccc21)c1ccc(C(F)(F)F)cc1` (stereo not drawn), the “hERG current change (%, negative = inhibition) at 10uM” value is recorded as 4.92%.
The same measure for `CCCNC(=O)NC(=O)CSc1nc2ccccc2n1CC(C)C`: -27.7%; for `Cc1[nH]c(=O)[nH]c(=O)c1CSc1nnc([C@H](CC(C)C)NC(=O)OC(C)(C)C)o1`: 1.9%; for `O=C(COc1ccc2c(c1)CCC2)N1CCN(c2ccccc2F)CC1`: -6.13%.
`CN(CC(=O)Nc1sccc1C#N)C1CCCCC1`: the “hERG current change (%, negative = inhibition) at 10uM” value turned out to be 5.5%.
In the case of `COc1ccc(NC(=O)c2nn(C34CC5CC(CC(C5)C3)C4)cc2[N+](=O)[O-])cc1`, the “hERG current change (%, negative = inhibition) at 10uM” value is -0.0263%.
The same measure for `CC(=O)NCC1CCCN(Cc2cn(-c3ccccc3F)nc2-c2cc(C)sc2C)C1` (stereo not drawn): -19.1%; for `COCCN(C(=O)C1CCN(C(=O)c2ccccc2C)CC1)c1c(N)n(CC(C)C)c(=O)[nH]c1=O`: 10.2%.
`N#Cc1ccc(-c2ccc(F)cc2)nc1Oc1ccc(F)cc1`: the “hERG current change (%, negative = inhibition) at 10uM” value was found to be 7.47%.
The same measure for `Cc1ccccc1OCCC(=O)OCC(=O)Nc1ccc(C(N)=O)cc1`: 8.08%; for `COc1ccc(Nc2nnc(C)c(=O)[nH]2)cc1`: -6.61%; for `COC(=O)c1sccc1-n1cccc1C(=O)C(=O)N1CCOCC1`: -78.3%.

Source of the values: PMC4336329 (PLoS ONE, 2015).
